In the supplement of paper PMC3334620:
The full ranking holds about 33,000 sequences; the median of “E-score (-0.5 to 0.5)” is about -0.035, and the highest 2% start at about 0.34. The list shows a part of the results.

These sequences were tested against T1, Mot3 (UniProt P54785) (assay: PBM E-score (8-mer binding enrichment) (E-score (-0.5 to 0.5)); higher = stronger / more preferred TF binding; most listed sequences are background and not binding sites). Settings: protein concentration: 200 nM; construct: GST-full length.
T1 sequence: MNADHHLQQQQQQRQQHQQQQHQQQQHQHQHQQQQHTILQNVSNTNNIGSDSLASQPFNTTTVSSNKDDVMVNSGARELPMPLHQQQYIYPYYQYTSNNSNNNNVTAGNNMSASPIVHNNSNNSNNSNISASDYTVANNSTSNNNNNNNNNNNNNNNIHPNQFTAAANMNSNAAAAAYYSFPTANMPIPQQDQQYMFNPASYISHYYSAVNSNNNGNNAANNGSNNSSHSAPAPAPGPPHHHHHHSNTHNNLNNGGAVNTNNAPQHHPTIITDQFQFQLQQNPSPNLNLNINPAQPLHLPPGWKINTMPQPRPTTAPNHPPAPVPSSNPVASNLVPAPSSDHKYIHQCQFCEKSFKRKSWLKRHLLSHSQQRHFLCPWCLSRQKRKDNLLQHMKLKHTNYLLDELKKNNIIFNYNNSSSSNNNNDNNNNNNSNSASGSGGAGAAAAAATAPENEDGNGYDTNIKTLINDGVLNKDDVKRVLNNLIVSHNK
In short: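 Universal all-10-mer Agilent arrays, double-stranded by primer extension on fresh or once-stripped slides, were probed with about 100-200 nM GST-tagged yeast transcription factors made by PURExpress. Fluorescent anti-GST detected bound protein, and masliner normalised the scans. E-scores from the Universal PBM Analysis Suite were given to each ungapped eight-base word pooled with its reverse complement.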

Sequence | PBM E-score
AATATTCT | -0.122
AGCGGTAT | 0.106
CTATATAA | 0.085
CAGCCAAC | -0.0943
AAGGCAGG | 0.231
AACGTGAG | -0.00234
GCAGATCA | -0.0142
CCTCTACG | 0.0101
ACTGACCA | -0.17
ATGGCGGC | -0.244
TAATCAAA | 0.0852
GCAATTAC | 0.149
AAACCTAT | 0.0655
CAATAAGG | 0.08
CAAGTGCA | 0.113
ATCGTATA | 0.154
AATTACAC | 0.402
ATTATAGG | 0.136
AAACCAAC | -0.0131
ACACCAAT | 0.0322
TCCTGACA | 0.119
CTATATGA | 0.0308
CCTCCGGC | -0.31
ACCAGGAT | -0.105
GGGTATAC | 0.0475

Sequence | PBM E-score
CACCTTCG | -0.0632
CGAATTAG | 0.0261
GCGGACTA | -0.0278
CTACTTCA | -0.126
CGCACCAC | -0.17
ATAAGTGG | -0.135
AACGTGCG | 0.0588
TCGCTGAA | -0.0378
GGGCGGTA | -0.29
AGGCGGAA | 0.101
TCGCACAA | -0.0537
AGGCAACA | 0.482
ATACATTG | 0.173
ATGTAGGC | 0.361
ACTAAAGA | 0.0266
CAGTTTTA | 0.0825
ACCCTAGA | 0.00157
CTACCAAC | 0.134
CTTACCGC | -0.061
AGACGCAG | -0.0464
GGACCGCA | -0.223
ACTCAACA | 0.287
CGTGAGGA | -0.178
GACGCTGC | -0.0452
GCCAATGA | -0.225

Sequence | PBM E-score
AGTTACCC | -0.036
AGAATTTC | -0.145
ATCCGGTA | -0.0352
ATCCGGAT | -0.0809
ATGTCCAG | -0.195
AGAGATGC | 0.00117
CCAAAGGA | 5e-05
ACATCAAA | 0.109
ATTTGAAA | 0.0527
ACAACCCT | 0.0664
ACCGTACG | -0.116
GGATCGAC | -0.145
CTTCAAAG | -0.106
ATCAGGAT | -0.12
CAGTCCAC | -0.0523
CCAGGTAG | -0.141
CGACGTAG | -0.113
CAATTCGA | 0.0209
GCTTATCC | -0.179
ATGTACAG | 0.247
CAATCCTC | -0.147
CGGCCATC | -0.292
ACGAATCA | 0.0682
AATATGCT | -0.0891
AGTGGGGG | -0.307

Sequence | PBM E-score
AGAAGTTG | -0.131
ATGGAGCC | 0.023
TAATGTGA | 0.117
GGCAGAGA | -0.0955
CCAGCTTA | -0.0333
AATATAAG | 0.117
AACCTGAT | 0.00552
AATACTGT | 0.0593
CACCGGCG | -0.0729
AACTGCAT | 0.0343
TGACGCAA | -0.00663
AGATATTG | -0.093
AACTCCTA | 0.0209
CCGTTTGC | -0.122
GAGGACTC | -0.168
CTGTGGAC | -0.203
CCCCGGGC | -0.283
GTAGTTCA | 0.0323
CAAGGCAC | 0.488
AAGCACTG | -0.0039
GTACCTGA | 0.402
TATAAGCA | 0.0177
ATCGGGCG | -0.16
CGATGAGC | -0.178
AATAGTAC | 0.137

Sequence | PBM E-score
ATGCGCAT | 0.293
AAGGTGGC | -0.095
CTATGAAG | -0.0173
GCGTGAAC | 0.0165
CGTACGAG | -0.148
CGTTTGAA | -0.0507
ACTCTATC | -0.0435
GGTGCTTA | -0.0994
ATACGTTC | 0.0323
CAAATCGA | 0.0103
GATACGAA | 0.0707
ACAGTACG | 0.173
GACGCCGC | -0.268
ACCCGGCA | -0.316
CAACAAAG | 0.15
CCGCAATA | -0.0667
AAATAATT | 0.0933
GCGCCCCC | -0.248
CCGTCGAG | -0.0153
ATTTTGCG | -0.0408
AAGGGTTA | 0.0507
CTACGCTC | -0.0123
ATCTCCTC | -0.0293
AGTAGGGA | -0.0867
GCTCTGTA | 0.00681

Sequence | PBM E-score
AGTAAAAA | 0.16
CCGAATGA | -0.243
CGGCGCAC | -0.223
AGCCTCAC | -0.292
ACGGGGGG | -0.118
ACCACCGT | -0.106
AATGAACC | -0.129
AATATTCC | -0.0463
ACAAAGGG | -0.0152
CGGCTACG | -0.205
GAGTCTAA | -0.0987
CGACAGAA | -0.216
CGTGCCAC | -0.0877
GCTTTCAA | 0.0658
GGCACACA | 0.29
CGTGTTAA | 0.418
CATCCGAG | -0.127
ATACTGTC | 0.114
CTCCTGCA | -0.092
AGGCGCGC | 0.114
AGAAGTCA | 0.0581
ATGTTTAA | 0.285
AGAGAACG | 0.0344
GCCAGGGA | -0.0848
ATCACAAA | 0.00583

Sequence | PBM E-score
AACATCGA | 0.184
CCGTTAAA | 0.118
AGTCCTTA | -0.0443
CTCAGAAC | 0.0654
CACAGCCG | -0.192
GGAGCTCA | -0.0924
ACAGGCTC | 0.404
ATTGCTAG | -0.124
AGCGTGGA | -0.226
GGGGTAAC | -0.0357
CGGTTCAA | -0.0702
CACTCCAC | -0.0184
ATCTAGGC | 0.0434
TCACGAAA | 0.0869
ACGCTTCG | -0.0564
CGCCGGCC | -0.27
AGACTCCT | -0.297
CCCTTCGG | -0.201
AAGGCTCG | 0.235
ACTACCGC | -0.0469
CAACCTGC | 0.0356
ACCGCGGC | -0.114
